# Calls of active or inactive are those of the source. Unless noted, calls come from the whole dose curve; as a rule, active = well fitted curve in the direction sought with a large enough effect in the repeat runs; inconclusive = weak or mixed curves; inactive = no such curve, though single readings can be large; an effect the other way counts as inactive or inconclusive. Entries that show only a call come without a potency.
# Legend:
# [1] = qHTS assay to identify small molecule that activate the aryl hydrocarbon receptor (AhR) signaling pathway - cell viability counter screen (AID 743086); note: nearly all actives have a fitted effect of over 45% in size; note: potency is the fitted concentration of half-maximal effect;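 for viability change, negative = cytotoxic: HepG2 liver cells carrying the AhR DRE luciferase reporter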
# How it was run: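 HepG2-AhR-luc (HG2L7.5c1) cells, 4000/well, were preincubated 5 h at 37C, exposed to compound in qHTS format for 24 hr at 37C, then given CellTiter-Fluor for 30 min; viability was read as fluorescence in the reporter wells.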
# [2] = qHTS assay to identify small molecule antagonists of the peroxisome proliferator-activated receptor delta (PPARd) signaling pathway - cell viability counter screen (AID 743213); conditions: PPARd-bla HEK293H viability, CellTiter-Glo luminescence, 17 h; viability change, negative = cytotoxic: at 62 µM (top of the series) unless noted; note: nearly all actives have a fitted effect of over 50% in size; note: potency is the fitted concentration of half-maximal effect
# How it was run: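 Cytotoxicity counter screen: CellTiter-Glo luminescence read 30 min after addition, in the same wells as the reporter assay. There, PPARd UAS-bla HEK293H cells (3000/well) were treated 17 h at 37 C with compound and 300 nM L165041.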
# [3] = qHTS assay to identify small molecule agonists of the hypoxia (HIF-1) signaling pathway (AID 1224846; active = well fitted activation curve with a large enough effect in the signal ratio in the repeat runs, not every such curve was filed as active; inconclusive = weak or mixed curves; the % refers to the signal ratio; note: potency is the fitted concentration of half-maximal effect); conditions: HRE-bla ME-180 cells, beta-lactamase ratio, 17 h; activation: at 76.8 µM (top of the series) unless noted
# How it was run: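 Hypoxia-pathway activation was scored as increased beta-lactamase from an HRE-controlled reporter in ME-180 cells; plated at 2,000 cells per well with 0.5% dialyzed FBS, they were exposed 17 hrs to compounds and then given CCF4-AM.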
# [4] = molecular target: Glucocorticoid receptor (Homo sapiens) (UniProt P04150); experiment: qHTS assay to identify small molecule agonists of the glucocorticoid receptor (GR) signaling pathway (AID 720691; active = well fitted activation curve with a large enough effect in the signal ratio in the repeat runs, not every such curve was filed as active; inconclusive = weak or mixed curves, or effect the other way; inactive = no such curve, though single readings can be large or run the other way; the % refers to the signal ratio; note: potency is the fitted concentration of half-maximal effect); conditions: GR-bla HeLa, beta-lactamase reporter ratio, 18 h; activation: at 62.4 µM (top of the series) unless noted
# How it was run: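 Reporter read-out: fluorescence intensity following 2 h room-temperature LiveBLAzer B/G FRET substrate loading. Prior step: GR-bla HeLa cells held 4 h, then treated 18 h at 37 C.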
# [5] = qHTS assay for identifying genotoxic compounds that show differential cytotoxicity against isogenic chicken DT40 cell lines with known DNA damage response pathways - Rad54/Ku70 mutant cell line (AID 743015); conditions: DT40 Rad54/Ku70 mutant viability, CellTiter-Glo, 40 h; activity change, negative = cytotoxicity: at 66.8 µM (top of the series) unless noted; note: nearly all actives have a fitted effect of over 60% in size; note: potency is the fitted concentration of half-maximal effect
# [6] = molecular target: Androgen receptor (Homo sapiens) (UniProt P10275); experiment: qHTS assay to identify small molecule antagonists of the androgen receptor (AR) signaling pathway (AID 743035; active = well fitted inhibition curve with a large enough effect in the signal ratio in the repeat runs, not every such curve was filed as active; inconclusive = weak or mixed curves, or effect the other way; inactive = no such curve, though single readings can be large or run the other way; the % refers to the signal ratio; note: potency is the fitted concentration of half-maximal effect); conditions: HEK293 AR-UAS-bla, R1881-stimulated, beta-lactamase FRET, 16 h; activity change, negative = inhibition: at 58.5 µM (top of the series) unless noted
# How it was run: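 Using qHTS, AR-UAS-bla GripTite HEK293 cells received compound, then R1881, and were cultured 16 h at 37C/5% CO2 before a 2 h room-temperature LiveBLAzer B/G FRET substrate step and fluorescence measurement.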
# [7] = molecular target: Androgen receptor (Homo sapiens) (UniProt P10275); experiment: qHTS assay to identify small molecule agonists of the androgen receptor (AR) signaling pathway (AID 743036; active = well fitted activation curve with a large enough effect in the signal ratio in the repeat runs, with a control signal flat, not every such curve was filed as active; inconclusive = weak or mixed curves, or effect the other way; inactive = no such curve, though single readings can be large or run the other way; the % refers to the signal ratio; note: potency is the fitted concentration of half-maximal effect); conditions: HEK293 AR-UAS-bla GripTite, beta-lactamase FRET ratio, 16 h; activation: at 62.4 µM (top of the series) unless noted
# How it was run: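 Fluorescence from a beta-lactamase FRET substrate served as read-out in AR-UAS-bla GripTite HEK293 cells. Cells were treated with DMSO-dissolved compounds for 16 h at 37C, then with LiveBLAzer B/G substrate for 2 h at room temperature.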
# [8] = qHTS assay to identify small molecule antagonists of the androgen receptor (AR) signaling pathway using the MDA cell line - cell viability counter screen (AID 743041; note: nearly all actives have a fitted effect of over 45% in size; note: potency is the fitted concentration of half-maximal effect); conditions: MDA-kb2 viability, CellTiter-Fluor, 16 h, cells co-treated with R1881 androgen agonist; viability change, negative = cytotoxic: at 70.3 µM (top of the series)
# How it was run: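 Viability counter screen run alongside the AR antagonist reporter: cells seeded 5 h before compound, R1881 added, 16 h incubation at 37C without CO2, fluorescent CellTiter-Fluor signal quantified.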
# [9] = molecular target: Bile acid receptor (Homo sapiens) (UniProt Q96RI1); experiment: qHTS assay to identify small molecule antagonists of the farnesoid-X-receptor (FXR) signaling pathway (AID 743217; active = well fitted inhibition curve with a large enough effect in the signal ratio in the repeat runs, not every such curve was filed as active; inconclusive = weak or mixed curves, or effect the other way; inactive = no such curve, though single readings can be large or run the other way; the % refers to the signal ratio); conditions: HEK293T FXR-UAS-bla, beta-lactamase ratio, CDCA-stimulated, 16 h; activity change, negative = inhibition: at 62.6 µM (top of the series) unless noted
# How it was run: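 In this cell-based antagonist screen, inhibition of CDCA-driven (50 uM final) UAS-beta-lactamase expression in HEK 293T cells was measured by FRET fluorescence following 16 h compound exposure at 37 °C.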
# [10] = qHTS assay to identify small molecule antagonists of the sonic hedgehog signaling (Shh) pathway (AID 1259369; calls by dose curve; note: nearly all actives have a fitted effect of over 45% in size)
# How it was run: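 Conditioned medium drives Shh signalling in 3T3Gli1-Luc cells; compounds in DMSO co-applied, 24hr at 37 C, then luciferase luminescence.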
# [11] = qHTS assay to identify small molecule antagonists of the TGF-beta/Smad signaling pathway (AID 1346924; active = well fitted inhibition curve with a large enough effect in the signal ratio in the repeat runs, not every such curve was filed as active; inconclusive = weak or mixed curves; the % refers to the signal ratio); conditions: SBE-bla HEK293T, TGF-beta/Smad reporter, beta-lactamase ratio; activity, negative = inhibition: at 76.8 µM (top of the series) unless noted
# How it was run: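 SBE-bla HEK 293T cells were plated overnight, then received compound in DMSO plus TGF-beta1 (added as a 0.25 ng/mL solution) and were incubated 5 h at 37 C. Beta-lactamase reporter activity was read after 2 h at room temperature with LiveBLAzer B/G FRET substrate (ex 405, em 460/530 nm).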
# [12] = qHTS assay to identify small molecule antagonists of the peroxisome proliferator-activated receptor gamma (PPARg) signaling pathway - cell viability counter screen (AID 743194); conditions: PPARg-bla HEK293H viability, CellTiter-Glo luminescence, 17 h, co-treated with 50 nM rosiglitazone; activity change, negative = cytotoxicity: at 62.6 µM (top of the series) unless noted; note: nearly all actives have a fitted effect of over 55% in size; note: potency is the fitted concentration of half-maximal effect
# How it was run: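 PPARg-UAS-bla HEK293H cells were plated, rested 5 h at 37 C, then treated with compounds plus rosiglitazone (50 nM final) for 17 h at 37 C; viability was then read by CellTiter-Glo luminescence after 30 min at room temperature.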
# [13] = qHTS assay to identify small molecule antagonists of the androgen receptor (AR) signaling pathway - cell viability counter screen (AID 743033; note: potency is the fitted concentration of half-maximal effect; nearly all actives have a fitted effect of over 45% in size); conditions: AR-bla HEK293 viability, CellTiter-Glo luminescence, 16 h; activity change, negative = cytotoxicity: at 58.5 µM (top of the series) unless noted
# [14] = tested on: thyroid hormone receptor (rat, GH3 cells); experiment: qHTS assay to identify small molecule agonists of the thyroid receptor (TR) signaling pathway (AID 743066; calls by dose curve; note: potency is the fitted concentration of half-maximal effect); conditions: GH3.TRE-Luc cells, TR agonist luciferase, 24 h; activation: at 83.9 µM (top of the series) unless noted
# [15] = qHTS RealTime-Glo MT Cell Viability Assay in HEK293 cells - 40 hour (AID 1224874); conditions: RealTime-Glo luminescence; max response: stronger effect = lower value; note: nearly all actives have a fitted effect of over 50% in size; note: potency is the fitted concentration of half-maximal effect
# How it was run: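 Tox21 screen in HEK293 using RealTime-Glo MT chemistry, with cells and reagent co-dispensed. Luminescence proportional to viable cell number was captured at intervals during 40 h compound exposure at 37 C.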
# [16] = qHTS assay to identify small molecule antagonists of the estrogen related receptor signaling pathway with the pleiotropic PPARgamma coactivator (PGC) from Tox21 10K library (AID 1224841; call rule not given here; note: actives are mostly falling curves and most rising ones were filed inactive; nearly all actives have a fitted effect of over 50% in size)
# How it was run: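 Each well held 2,000 PGC/ERR cells, pre-incubated six hours (37 C, 5% CO2). Test substances in DMSO were added by pin tool and left for 18 h at 37 C before luciferase detection by One-Glo.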
# [17] = qHTS RealTime-Glo MT Cell Viability Assay in HEK293 cells - 16 hour (AID 1224872); note: nearly all actives have a fitted effect of over 50% in size; note: potency is the fitted concentration of half-maximal effect; for activity change, negative = cytotoxicity: top concentration of the series differs between compounds
# How it was run: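 Viability tracked continuously by luminescence as live cells reduce a prosubstrate for NanoLuc; HEK293 cells preincubated 5 h, compound-treated at 37 C, and read at 0, 8, 16, 24, 32 and 40 h.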
# [18] = qHTS assay to identify aromatase inhibitors - cell viability counter screen (AID 743084); conditions: MCF-7 aro ERE viability, CellTiter-Fluor, 24 h; activity change, negative = cytotoxicity: at 70.3 µM (top of the series) unless noted;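 note: cells stimulated with testosterone during compound exposure; nearly all actives have a fitted effect of over 55% in size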
# [19] = qHTS assay to identify small molecule agonists of the vitamin D receptor (VDR) signaling pathway - cell viability counter screen (AID 743224); note: nearly all actives have a fitted effect of over 50% in size
# How it was run: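 Here cell health was gauged by luminescent ATP detection (CellTiter-Glo, 30 min RT) in VDR-bla cells that had been incubated with test compounds for 16 h at 37C and 5% CO2.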
# Tags give direction and shape of the fitted curve or compound fluorescence and quenching.
# Sequence of UniProt P04150 (P04150 whole entry, looked up): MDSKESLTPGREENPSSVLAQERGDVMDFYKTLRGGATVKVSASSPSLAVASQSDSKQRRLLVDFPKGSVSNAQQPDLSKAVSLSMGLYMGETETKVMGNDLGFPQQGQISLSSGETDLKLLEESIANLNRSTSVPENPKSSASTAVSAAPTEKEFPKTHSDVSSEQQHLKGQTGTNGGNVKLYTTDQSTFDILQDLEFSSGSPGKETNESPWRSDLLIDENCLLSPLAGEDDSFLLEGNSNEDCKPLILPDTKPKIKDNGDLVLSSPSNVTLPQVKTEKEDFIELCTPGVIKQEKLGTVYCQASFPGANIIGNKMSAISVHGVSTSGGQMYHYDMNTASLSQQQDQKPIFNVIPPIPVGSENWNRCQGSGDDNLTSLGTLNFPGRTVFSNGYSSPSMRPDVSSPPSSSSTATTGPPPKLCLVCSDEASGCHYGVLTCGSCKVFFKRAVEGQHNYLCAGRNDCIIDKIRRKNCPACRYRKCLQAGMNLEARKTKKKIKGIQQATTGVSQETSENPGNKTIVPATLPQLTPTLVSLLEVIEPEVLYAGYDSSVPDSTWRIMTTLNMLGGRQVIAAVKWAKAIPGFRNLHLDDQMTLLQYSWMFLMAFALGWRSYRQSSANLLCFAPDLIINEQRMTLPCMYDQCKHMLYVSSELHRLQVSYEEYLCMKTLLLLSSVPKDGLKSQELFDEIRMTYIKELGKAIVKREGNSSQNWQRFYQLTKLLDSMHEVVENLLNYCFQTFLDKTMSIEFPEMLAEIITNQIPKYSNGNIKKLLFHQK
# Sequence of UniProt P10275 (P10275 whole entry, looked up): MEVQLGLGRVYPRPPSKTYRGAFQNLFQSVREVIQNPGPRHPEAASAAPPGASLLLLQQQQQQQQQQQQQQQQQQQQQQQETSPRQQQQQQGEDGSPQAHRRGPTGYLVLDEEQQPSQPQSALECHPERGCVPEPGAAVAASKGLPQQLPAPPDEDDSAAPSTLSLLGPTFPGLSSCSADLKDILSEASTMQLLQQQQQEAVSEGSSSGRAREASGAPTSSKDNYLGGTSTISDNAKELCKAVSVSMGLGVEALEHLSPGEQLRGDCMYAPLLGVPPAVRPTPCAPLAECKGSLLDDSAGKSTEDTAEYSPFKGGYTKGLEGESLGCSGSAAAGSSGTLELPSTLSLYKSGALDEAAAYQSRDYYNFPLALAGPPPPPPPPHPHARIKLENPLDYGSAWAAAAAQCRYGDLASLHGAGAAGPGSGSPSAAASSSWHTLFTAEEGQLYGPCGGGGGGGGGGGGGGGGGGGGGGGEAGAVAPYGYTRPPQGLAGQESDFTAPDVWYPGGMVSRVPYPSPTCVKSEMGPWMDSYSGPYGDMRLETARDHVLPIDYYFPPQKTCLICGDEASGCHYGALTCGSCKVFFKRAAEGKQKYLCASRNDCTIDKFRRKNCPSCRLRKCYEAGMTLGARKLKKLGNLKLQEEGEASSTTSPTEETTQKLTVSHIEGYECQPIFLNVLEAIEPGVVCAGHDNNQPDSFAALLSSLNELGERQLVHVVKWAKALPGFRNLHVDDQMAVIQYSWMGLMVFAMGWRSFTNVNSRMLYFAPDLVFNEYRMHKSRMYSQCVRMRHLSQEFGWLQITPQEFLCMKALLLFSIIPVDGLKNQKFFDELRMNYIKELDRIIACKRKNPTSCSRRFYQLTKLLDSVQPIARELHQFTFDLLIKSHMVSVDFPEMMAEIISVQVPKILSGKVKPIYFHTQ
# Sequence of UniProt Q96RI1 (Q96RI1 whole entry, looked up): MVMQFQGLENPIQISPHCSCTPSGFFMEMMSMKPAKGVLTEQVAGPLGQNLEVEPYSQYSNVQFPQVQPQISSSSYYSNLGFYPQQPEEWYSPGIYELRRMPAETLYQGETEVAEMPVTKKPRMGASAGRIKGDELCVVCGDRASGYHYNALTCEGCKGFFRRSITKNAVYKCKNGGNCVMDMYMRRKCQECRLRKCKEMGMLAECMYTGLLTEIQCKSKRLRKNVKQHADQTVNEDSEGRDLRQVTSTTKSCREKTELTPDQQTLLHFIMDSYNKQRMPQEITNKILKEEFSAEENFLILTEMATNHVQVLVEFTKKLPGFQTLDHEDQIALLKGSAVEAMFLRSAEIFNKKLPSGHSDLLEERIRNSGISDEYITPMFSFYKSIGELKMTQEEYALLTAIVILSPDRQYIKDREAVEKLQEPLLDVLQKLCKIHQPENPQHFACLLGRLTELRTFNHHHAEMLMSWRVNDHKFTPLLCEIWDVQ
compound,measurement,setting,value
CCOc1cc([N+](=O)[O-])c(OCC)cc1N1CCOCC1,Potency,[1],"inconclusive: 54.5 µM [falling, partial curve, poor fit]"
same,Potency,[2],inactive
same,Potency,[3],inactive
CC(c1cc2ccccc2s1)N(O)C(N)=O (stereo unspecified),Potency,[4],inactive
same,Potency,[5],"inconclusive: 54.5 µM [cytotoxic, partial curve]"
same,Potency,[6],inactive
same,Potency,[7],inactive
same,"viability change, negative = cytotoxic",[8],inconclusive: 31.6%
CCCCC(CC)C(=O)OC(C)C (stereo unspecified),Potency,[1],inactive
same,Potency,[9],inactive
same,Potency,[10],inactive
same,"activity, negative = inhibition",[11],inconclusive: 14.5%
Cc1c(Cl)cccc1Cl,Potency,[2],"inconclusive: 1.95 µM [cytotoxic, single point]"
C[C@@H](O)C(=O)O,Potency,[12],inactive
same,Potency,[10],inactive
O=c1[nH]c(=O)n([C@H]2C[C@H](O)[C@@H](CO)O2)cc1Br,Potency,[13],"inconclusive: 0.0054 µM [cytotoxic, full curve, poor fit]"
same,Potency,[14],"inconclusive: 43.9 µM [activator, partial curve, poor fit]"
same,Potency,[15],"inconclusive: 28 µM [rising, partial curve, poor fit]"
CC(=O)c1cccnc1,Potency,[14],inactive
same,Potency,[12],"inconclusive: 9.77 µM [cytotoxic, full curve, poor fit]"
same,Potency,[10],inactive
CC(C(=O)O)c1ccc2c(c1)CC(=O)c1ccccc1S2 (stereo unspecified),Potency,[4],inactive
same,activation,[7],inconclusive: 0.288%
CCCCOC(=O)C(C)OC(=O)CCC (stereo unspecified),Potency,[16],inactive
same,Potency,[17],inactive
same,"activity, negative = inhibition",[11],inconclusive: 3.5%
Cc1ccnc(NS(=O)(=O)c2ccc(N)cc2)n1,Potency,[8],inactive
CCCC(=O)O[C@]1(C(=O)CCl)[C@@H](C)C[C@H]2[C@@H]3CCC4=CC(=O)C=C[C@]4(C)[C@@]3(F)C(=O)C[C@@]21C,Potency,[4],active: 0.0239 µM [inconclusive]
same,Potency,[6],active: 7.56 µM
same,Potency,[7],"inconclusive: 4.25 µM [activator, partial curve]"
same,Potency,[8],"inconclusive: 33.5 µM [cytotoxic, partial curve, poor fit]"
same,Potency,[9],inactive
same,Potency,[3],"inconclusive: 26.8 µM [falling, single point]"
C[C@H]1C[C@@H](O)CC(C)(C)C1,Potency,[18],inactive
CCCCCCCCCOCC1CO1 (stereo unspecified),Potency,[1],inactive
same,Potency,[3],inactive
CNCCO,Potency,[5],inactive
same,Potency,[14],inactive
same,Potency,[19],inactive
same,Potency,[3],inactive
CC(=O)SC[C@@H](C)C(=O)N1CCC[C@H]1C(=O)N[C@@H](Cc1ccccc1)C(=O)O,Potency,[18],inactive
same,max response,[15],inactive: 3.03%
same,"activity, negative = inhibition",[11],inconclusive: -4.22% [at 35.3 µM]
C[C@H](CCC(=O)NCC(=O)O)[C@H]1CC[C@H]2[C@@H]3[C@H](O)C[C@@H]4C[C@H](O)CC[C@]4(C)[C@H]3C[C@H](O)[C@]12C,Potency,[14],active: 74.8 µM
same,Potency,[18],inactive
same,Potency,[12],inactive
same,Potency,[9],inactive
same,Potency,[17],"inconclusive: 13.4 µM [cytotoxic, full curve]"
same,Potency,[10],inactive
CCN(CC)CCNC(=O)COc1ccc(Cl)cc1,Potency,[5],inactive
same,Potency,[2],inactive

# From PubChem BioAssay (Tox21)
